PubChem BioAssay AID434955 (Southern Research Specialized Biocontainment Screening …, 2010)
This is one part of the list. Shown are side measurements of this screen, not its main read-out; they come without a call. The list favours compounds with an active or inconclusive main result.

Assay: beta-lactam sensitization of Mtb H37Rv, H37Rv (AID 434955);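 note: growth measured after seven days incubation then overnight dye step; 0% = bacteria only wells and 100% = bacteria with antibiotic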
Settings: M. tuberculosis H37Rv growth with meropenem, percent inhibition; measured here: primary screen without meropenem; at 25 µM

Compound | inhibition [%]
COc1ccc(C(=O)N2CCCC(Nc3ccc(C)c(C)c3)C2)c(OC)n1 (configuration not stated) | 6.57
O=C(Cc1ccc(Cl)cc1)Nc1cccc(-c2nnc(-c3ccco3)o2)c1 | -2.08
CCOCC(=O)N1CCN(c2ccc(F)cc2)CC1 | 20.8
Cc1ccc(C)c(CSc2nnc(C)c(=O)n2N)c1 | -2.89
COc1ccc(-c2cc(C(F)(F)F)nc(SCC(=O)Nc3sc4c(c3C#N)CCC4)n2)cc1 | 44.3
COc1ccc(N2CCN(C(=O)c3cccc(NC4=NC5CS(=O)(=O)CC5S4)c3)CC2)cc1 (configuration not stated) | 6.17
CC(C)NC(=O)Cn1c(=O)n(CC(=O)N2CCCCC2)c(=O)c2sccc21 | 6.81
CS(=O)(=O)N(CC(=O)NCc1ccc2c(c1)OCO2)c1ccccc1 | -3
COC(=O)c1ccccc1SCC(=O)Nc1ccc(N2CCOCC2)cc1 | -1.55
CCN(CCN(C)C)C(=O)Cn1ncc2c1-c1cc(C)ccc1OC2 | -3.45
O=C(c1sc2cccc(Cl)c2c1Cl)N1CCN(CCc2ccccn2)CC1 | 5.34
CCCCn1nc2cc(C(=O)NCC34CC5CC(CC(C5)C3)C4)ccc2c1OCC | 50.9
O=C(COc1ccc(S(=O)(=O)Nc2ccccc2)cc1)NCc1cccnc1 | 3.34
CC(C)C(NC(=O)CC12CC3CC(CC(C3)C1)C2)C(=O)O (configuration not stated) | 1.89
CCCCSc1nc2sc3c(c2c(=O)n1-c1ccccc1)CCN(C)C3 | 69.7
O=C(CCC1CCCCC1)NCc1ccc(F)cc1 | 2.93
COc1ccc(OC)c(C(=O)N2CCCC(Nc3ccc(F)cc3)C2)c1 (configuration not stated) | 3.07
Cn1c(SCC(=O)OC2CCCCC2)nnc1-c1ccc2c(c1)OCO2 | 27.1
COc1ccc(Cl)cc1NC(=O)c1cccc(N2C(=O)C3CC=CCC3C2=O)c1 (configuration not stated) | 0.51
CCOc1ccc(NC(=O)CC2C(=O)NCCN2C(=O)Nc2ccccc2)cc1 (configuration not stated) | -6.77
CN[C@@H]1[C@H](O)[C@H](NC)[C@H]2O[C@@]3(O)C(=O)C[C@@H](C)O[C@H]3O[C@@H]2[C@H]1O | 5.05
Cc1ccc(NC(=S)Nc2ncccc2C)c(C)c1 | 7.16
COc1ccccc1-n1c(/C=C/c2ccccn2)nc2ccccc2c1=O | -5.93

Compound | inhibition [%]
O=S(=O)(c1ccccc1)N1CCN=C1SCc1c(F)cccc1Cl | 8.46
CCn1c(=O)c2ccccc2n2c(SCC(=O)N3CCCc4ccccc43)nnc12 | -8.56
CCCN(CCC)C(=O)CSc1ncccc1C(=O)O | 2.67
COc1ccc(-c2csc(NC(CO)c3nc4ccccc4n3Cc3ccc(C)cc3)n2)cc1 (configuration not stated) | 25.6
O=C(CSc1ncccc1C(=O)O)NCCC1=CCCCC1 | 4.65
CCOC(=O)C1CCN(S(=O)(=O)c2c(Cl)ccc3nonc23)CC1 | 44.7
O=C(N/N=C/c1c(O)n(Cc2ccc(F)cc2)c(=S)[nH]c1=O)c1ccncc1 | 58.9
CN(CC1COc2ccccc2O1)C(=O)c1cc(COc2c(F)cccc2F)on1 (configuration not stated) | 7.08
CC1CC(C)CN(CCCNC(=O)CN2C(=O)c3cccnc3Oc3ccc(Cl)cc32)C1 (configuration not stated) | 7.54
O=C(Nc1ccc(F)c(F)c1)NC1CCCCC1 | -9.69
CCOC(=O)c1ccccc1NC(=O)COC(=O)CN1C(=O)NC2(CCCC2)C1=O | 7.78
COC(=O)c1c(NC(=O)c2ccc(N(C)S(=O)(=O)c3ccc(C)cc3)cc2)sc2c1CCCC2 | 14.9
CNC(=O)c1c(NC(=O)c2ccco2)sc2c1CCCC2 | -3.2
N#C/C(=C/c1ccc(N2CCCCC2)o1)C(=O)Nc1ccc(Cl)cc1 | 2.7
COc1cccc(NC(=O)C2CC2)c1 | 21.5
C[C@]12CC[C@H]3[C@@H](CCC4=CC(=O)CC[C@@]43O)[C@@H]1CCC2=O | -4.5
C=CCSc1nsc(N)n1 | 1.36
Cc1cc(N2CCC(C)CC2)c(F)cc1[N+](=O)[O-] | 3.72
Cc1cccc(NC(=O)c2nc[nH]c2C(=O)NC2CCN(C(=O)OC(C)(C)C)CC2)c1 | 78.2
CC(C)Cn1c(-c2csc3c2CCCC3)n[nH]c1=S | -7.19
CC(C)n1cc(CN2CCC(n3nccc3NC(=O)Cc3ccccc3)CC2)cn1 | -1.99
O=C(c1cccs1)N1CCN(S(=O)(=O)c2ccccc2)CC1 | -6.9
COCCn1c(=O)[nH]c2cc(C(=O)NCC3CCCO3)ccc2c1=O (configuration not stated) | -6.75

Compound | inhibition [%]
CCCCN(C(=O)C1CC(=O)N(Cc2ccc(C)cc2)C1)c1c(N)n(CC(C)C)c(=O)[nH]c1=O (configuration not stated) | -14.7
CCCCCn1c(=O)c(C(=O)Nc2cnccn2)c(O)c2ccccc21 | -5.68
Cc1ccnc2c(N3C(=O)C4C5C=CC(C5)C4(C)C3=O)cccc12 (configuration not stated) | 0.31
CSc1nc2cc3c(cc2n1C(=O)c1ccc(C)cc1)OCCO3 | 54.6
CCc1ccc(NC(=O)Cn2ccn(-c3cccc(Cl)c3)c(=O)c2=O)cc1 | -7.5
CCOP(=O)(C(NC(=O)c1ccccc1Cl)=C(Cl)Cl)c1ccccc1 (configuration not stated) | 2.23
O=C1CSc2ccc(C(=O)NCCC3=CCCCC3)cc2N1 | -4.88
COc1ccccc1CN1CC(C(=O)N2CCCCCCC2)CCC1=O (configuration not stated) | -7.25
CCCCNC(=O)CN(c1ccc(Cl)c(Cl)c1)S(C)(=O)=O | 0.94
Cc1ccc(Nc2cc(C)nc3ncnn23)c(Cl)c1 | -6.1
COc1ccc(S(=O)(=O)N(C)CC(=O)NC2CC2)cc1OC | 3.47
Cc1cc(Br)ccc1NC(=O)CN1C(=O)C2CC=CCC2C1=O (configuration not stated) | 59.5
COC(=O)c1ccc(C(=O)OC)c(NC(=O)CSc2cccc[n+]2[O-])c1 | 100
Cc1nnnn1/C(=C\c1ccccc1)C(=O)OCC(=O)NC1CCCCC1 | 39.5
COc1cc(OC)c2ccc(=O)oc2c1C(CC(=O)N1CCN(c2ccccc2)CC1)c1ccc2c(c1)OCO2 (configuration not stated) | 38.5
O=C(NCCc1ccccc1Cl)C1CCC(=O)N(Cc2ccc(Cl)cc2)C1 (configuration not stated) | 6.77
CC(=O)c1ccc(S(=O)(=O)Nc2cccc(S(=O)(=O)NC3=NCCC3)c2)cc1 | 0.25
COC(=O)C1=C(C)NC2=C(C(=O)CC(C)(C)C2)C1c1cccc(C)n1 (configuration not stated) | -6.4
Cc1ccc(C(=O)N/C(=C\c2cccc([N+](=O)[O-])c2)C(=O)NC(Cc2ccccc2)C(=O)O)cc1 (configuration not stated) | 3.26
CCOC(=O)c1[nH]c(C)c(/C(O)=C2\C(=O)C(=O)N(CCN(C)C)C2c2cccc(OC)c2OC)c1C (configuration not stated) | -0.95
CC(=O)Nc1ccc(S(=O)(=O)Oc2ccc(Br)cc2C(=S)N2CCOCC2)cc1 | -1.11
